Laboratory results taken from PubChem BioAssay AID651820 (National Center for Advancing Translational Sciences (NCATS), 2012).
Out of some 340,000 compounds screened, about 12,000 (3.5%) were called active. This list was built around the results that the source calls inconclusive (neither active nor inactive); the mix of calls is not that of the screen. The call rests on the fitted dose curve; in most records, active means well fitted inhibition curve with a large enough effect; inconclusive means small, poorly fitted or top-dose-only effect, or another doubt; inactive means no such curve, though single readings can be large or run the other way. No potency is given beside an inconclusive call; the fits are too rough.

test: qHTS Assay for Inhibitors of Hepatitis C Virus (HCV); settings: Huh7.5.1 HCVcc-Cre (HCVcc is cell-culture hepatitis C virus) infection, luciferase reporter, 44 h; activity change, negative = inhibition: at 41.8 µM (top of the series)
Procedure, shortened: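 Luciferase read-out (15 sec integration) after a 15 min room-temperature substrate step quantifies HCVcc-Cre infection. Cells, 1,000 per well, had compound added 4 h post-plating, then virus at ~0.5 moi, and were cultured 44 h.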
On the % scale 0 is the no-effect control and ±100 the full control effect; potency means the concentration at half of the fitted maximal effect; tags describe the fitted curve by direction and shape.

SMILES	activity change, negative = inhibition	Potency
Cn1c(-c2ccc(Br)cc2)cnc1NCc1cccnc1	inactive: -7.75%	
Cc1cc(NC(=S)NC(=O)c2ccco2)c2ccccc2n1		inconclusive [inhibitor, partial curve]
Cc1cc(NCc2ccco2)n2c(nc3ccccc32)c1C#N		inconclusive [inhibitor, single point]
COCCCNC(=O)C(C#N)c1nc2ccccc2nc1N1CCCC1 (configuration not stated)	inactive: -1.63%	
O=c1/c(=C/c2ccc(CNS(=O)(=O)c3ccccc3)o2)sc2n1CCN=2		inconclusive [inhibitor, single point]
Cc1ccc(-c2nc3ccsc3c(=O)[nH]2)cc1	inactive: 5.94%	
CCn1c2ccccc2c2cc(NC(=S)N3CCOCC3)ccc21		inconclusive [inhibitor, single point]
Cc1cc([N+](=O)[O-])ccc1NCc1ccc2ccccc2c1		active: 11.2 µM
COc1cc(CCC(=O)Nc2cccc(S(=O)(=O)N(C)C)c2)cc(OC)c1OC		inconclusive [inhibitor, partial curve]
Nc1nc(C(=O)N2CCOCC2)nn1C(=O)c1ccc(Cl)cc1	inactive: 26%	
COc1ccc(Cl)cc1NC(=O)C(C)N(C)Cc1cccc(Cl)c1Cl (configuration not stated)		inconclusive [inhibitor, single point]
O=C(O)C1=C(C(=O)O)C2C=CC1C2	inactive: 3.96%	
CC(C)(C)c1cc(CN(CCO)CCO)cc(C(C)(C)C)c1O	inactive: -3.52%	
COCCNC(=O)C1(S(=O)(=O)c2ccccc2)CC=CC1		inconclusive [inhibitor, single point]
O=C(Cn1ncc2c3ccccc3n(Cc3ccccc3)c2c1=O)NCc1ccco1	inactive: -9.28%	
COc1ccc(CCC(C)NC2CCCCCCC2)cc1 (configuration not stated)	inactive: -3.2%	
COc1ccc(/C=C2/CC/C(=C\c3ccc(OC)c(OC)c3OC)C2=O)c(OC)c1OC		inconclusive [inhibitor, partial curve]
COc1ccnc(Oc2cccc(C(F)(F)F)c2)c1C(=O)N/C=N/OCc1ccccc1F		active: 11.2 µM
CC1CCCCC1NS(=O)(=O)c1ccc(S(=O)(=O)NCc2ccncc2)cc1 (configuration not stated)		inconclusive [inhibitor, full curve]
CC1Sc2ccc(C(=O)Nc3ccc(S(=O)(=O)N(C)C)cc3)cc2NC1=O (configuration not stated)		inconclusive [inhibitor, partial curve, poor fit]
CCOC(=O)c1c(C)n(C)c2ccc(OC(=O)c3ccoc3)cc12		inconclusive [inhibitor, single point]
COc1ccc(N2CCN(C(=O)c3ccc(CNS(=O)(=O)c4cc(C)ccc4C)cc3)CC2)cc1		inconclusive [inhibitor, partial curve]
